This passage reports binding results from article PMC3618364.

Sequences of proteins named here, by UniProt entry; tags and fusion partners are left off.
UniProt Q08562: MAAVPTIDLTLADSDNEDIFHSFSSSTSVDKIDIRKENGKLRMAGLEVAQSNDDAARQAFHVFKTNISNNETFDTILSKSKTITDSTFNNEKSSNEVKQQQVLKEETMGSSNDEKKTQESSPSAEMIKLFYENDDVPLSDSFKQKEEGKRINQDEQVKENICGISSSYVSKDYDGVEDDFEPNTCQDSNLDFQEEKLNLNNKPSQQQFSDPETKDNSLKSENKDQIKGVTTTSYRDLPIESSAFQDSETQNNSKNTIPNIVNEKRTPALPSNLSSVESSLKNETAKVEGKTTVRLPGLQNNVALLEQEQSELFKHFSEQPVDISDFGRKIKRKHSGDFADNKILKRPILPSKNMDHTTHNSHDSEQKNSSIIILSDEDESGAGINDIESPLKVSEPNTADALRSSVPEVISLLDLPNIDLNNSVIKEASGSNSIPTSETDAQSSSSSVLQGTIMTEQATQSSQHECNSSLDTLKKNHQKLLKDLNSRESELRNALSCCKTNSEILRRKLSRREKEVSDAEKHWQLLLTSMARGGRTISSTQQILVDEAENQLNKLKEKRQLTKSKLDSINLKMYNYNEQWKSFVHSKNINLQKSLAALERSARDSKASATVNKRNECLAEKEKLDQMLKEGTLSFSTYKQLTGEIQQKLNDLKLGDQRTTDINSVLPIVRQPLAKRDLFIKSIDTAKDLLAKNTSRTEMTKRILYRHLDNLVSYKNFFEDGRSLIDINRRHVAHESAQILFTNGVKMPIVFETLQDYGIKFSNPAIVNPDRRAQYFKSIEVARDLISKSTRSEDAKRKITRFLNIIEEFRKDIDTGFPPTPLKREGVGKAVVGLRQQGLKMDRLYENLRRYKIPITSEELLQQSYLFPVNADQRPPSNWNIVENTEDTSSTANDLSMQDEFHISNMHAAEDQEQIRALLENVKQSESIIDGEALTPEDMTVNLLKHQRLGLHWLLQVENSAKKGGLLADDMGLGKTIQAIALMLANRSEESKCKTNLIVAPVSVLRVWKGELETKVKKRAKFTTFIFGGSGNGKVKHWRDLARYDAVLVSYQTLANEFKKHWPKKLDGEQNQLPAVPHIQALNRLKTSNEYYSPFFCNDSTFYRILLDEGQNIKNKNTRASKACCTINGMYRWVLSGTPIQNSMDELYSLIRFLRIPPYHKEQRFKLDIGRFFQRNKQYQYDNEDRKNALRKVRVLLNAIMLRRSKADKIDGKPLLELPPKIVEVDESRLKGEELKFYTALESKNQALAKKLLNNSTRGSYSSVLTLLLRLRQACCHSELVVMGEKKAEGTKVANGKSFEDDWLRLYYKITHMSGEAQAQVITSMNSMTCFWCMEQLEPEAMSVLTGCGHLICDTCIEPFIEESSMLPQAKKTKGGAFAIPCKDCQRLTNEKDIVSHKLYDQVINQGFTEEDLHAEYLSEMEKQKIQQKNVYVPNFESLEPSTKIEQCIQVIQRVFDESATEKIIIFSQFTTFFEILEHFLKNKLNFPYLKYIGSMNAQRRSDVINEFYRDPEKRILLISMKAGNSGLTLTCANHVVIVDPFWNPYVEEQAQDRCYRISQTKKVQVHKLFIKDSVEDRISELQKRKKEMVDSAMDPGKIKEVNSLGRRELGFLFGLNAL

Results are given in words; binding and its absence hold for the method and conditions named. For some of these results: In cells and extracts the contact can be indirect. Some results given as binding are weak or reduced against the parent protein; the word gives no strength.

In assay [1] the target is T1, Gal4BD-Slx5 (S. cerevisiae) (UniProt P32828).
T1 sequence: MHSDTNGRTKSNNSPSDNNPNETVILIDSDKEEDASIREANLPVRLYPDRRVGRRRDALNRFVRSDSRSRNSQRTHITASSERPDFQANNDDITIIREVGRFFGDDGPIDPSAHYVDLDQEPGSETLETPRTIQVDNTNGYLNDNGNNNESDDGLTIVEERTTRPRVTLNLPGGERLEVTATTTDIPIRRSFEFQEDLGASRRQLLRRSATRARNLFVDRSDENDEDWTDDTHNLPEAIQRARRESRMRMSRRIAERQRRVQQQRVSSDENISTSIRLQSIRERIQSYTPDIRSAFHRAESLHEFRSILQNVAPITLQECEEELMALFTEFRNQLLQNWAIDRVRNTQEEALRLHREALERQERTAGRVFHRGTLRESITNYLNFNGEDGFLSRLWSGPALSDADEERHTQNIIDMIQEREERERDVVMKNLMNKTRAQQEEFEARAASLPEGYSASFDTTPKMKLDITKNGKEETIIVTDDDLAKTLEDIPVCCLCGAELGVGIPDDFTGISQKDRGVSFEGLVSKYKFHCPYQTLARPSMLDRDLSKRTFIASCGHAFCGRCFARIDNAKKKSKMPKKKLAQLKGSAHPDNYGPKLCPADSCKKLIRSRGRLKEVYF
The experiment in a line: two-hybrid; Gal4AD and Gal4BD fusions (pGADT7, pGBKT7) in reporter strain PJ69-4A; His (10 mM 3AT) and Ade reporter phenotypes on plates.

In assay [2] the target is Gal4BD-Smt3 (SUMO) (S. cerevisiae) [SUMO: Q12306]. The assay is described as above.
Assay [3] has as its target T2, Gal4BD-Ubc9 (S. cerevisiae) (UniProt P50623).
T2 sequence: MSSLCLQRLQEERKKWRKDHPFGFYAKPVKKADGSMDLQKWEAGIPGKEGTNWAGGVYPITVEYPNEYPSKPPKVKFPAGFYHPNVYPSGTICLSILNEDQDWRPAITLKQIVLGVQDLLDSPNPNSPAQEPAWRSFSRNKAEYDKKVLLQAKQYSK
The description is as above.

The target in assay [4] is T3, TAP-Slx5 (S. cerevisiae) (UniProt P32828).
T3 sequence: T1 sequence
The experiment in a line: co-IP; extracts of strain ZY528 (genomic TAP-Slx5) with a plasmid for HA-Uls1; IgG beads (TAP-Slx5) or HA beads, 1.5 hr at 4°C, RNP buffer (20 mM HEPES pH 7.4, 100 mM NaCl, 0.1% NP-40); Western blot with anti-HA and anti-TAP.

In the case of “Gal4AD-Uls1 (1-1619) (from UniProt Q08562 1-1619)”, the binding result in assay [1] was “binds”; in assay [2], “binds”; in assay [3] it was “no binding”.

Consider HA-Uls1 (from UniProt Q08562 1-1619), for which, in assay [4], the binding entry was “binds”.
